Laboratory results as given in article PMC4336329 (PLoS ONE, 2015).
In all, about 310,000 compounds went through this assay and about 14,000 (4.5%) showed an effect of 50% or more. The effect is printed as a negative number. The list shows a part of the results.

Each compound was assayed against human ether-à-go-go-related gene (hERG) potassium channel (human, UniProt Q12809) (assay: primary screen, population patch clamp on CHO cells stably expressing hERG).
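Also: peak tail current of the secondary pulse compared with the same well before compound.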

human ether-à-go-go-related gene (hERG) potassium channel, sequence (Q12809 whole entry, looked up): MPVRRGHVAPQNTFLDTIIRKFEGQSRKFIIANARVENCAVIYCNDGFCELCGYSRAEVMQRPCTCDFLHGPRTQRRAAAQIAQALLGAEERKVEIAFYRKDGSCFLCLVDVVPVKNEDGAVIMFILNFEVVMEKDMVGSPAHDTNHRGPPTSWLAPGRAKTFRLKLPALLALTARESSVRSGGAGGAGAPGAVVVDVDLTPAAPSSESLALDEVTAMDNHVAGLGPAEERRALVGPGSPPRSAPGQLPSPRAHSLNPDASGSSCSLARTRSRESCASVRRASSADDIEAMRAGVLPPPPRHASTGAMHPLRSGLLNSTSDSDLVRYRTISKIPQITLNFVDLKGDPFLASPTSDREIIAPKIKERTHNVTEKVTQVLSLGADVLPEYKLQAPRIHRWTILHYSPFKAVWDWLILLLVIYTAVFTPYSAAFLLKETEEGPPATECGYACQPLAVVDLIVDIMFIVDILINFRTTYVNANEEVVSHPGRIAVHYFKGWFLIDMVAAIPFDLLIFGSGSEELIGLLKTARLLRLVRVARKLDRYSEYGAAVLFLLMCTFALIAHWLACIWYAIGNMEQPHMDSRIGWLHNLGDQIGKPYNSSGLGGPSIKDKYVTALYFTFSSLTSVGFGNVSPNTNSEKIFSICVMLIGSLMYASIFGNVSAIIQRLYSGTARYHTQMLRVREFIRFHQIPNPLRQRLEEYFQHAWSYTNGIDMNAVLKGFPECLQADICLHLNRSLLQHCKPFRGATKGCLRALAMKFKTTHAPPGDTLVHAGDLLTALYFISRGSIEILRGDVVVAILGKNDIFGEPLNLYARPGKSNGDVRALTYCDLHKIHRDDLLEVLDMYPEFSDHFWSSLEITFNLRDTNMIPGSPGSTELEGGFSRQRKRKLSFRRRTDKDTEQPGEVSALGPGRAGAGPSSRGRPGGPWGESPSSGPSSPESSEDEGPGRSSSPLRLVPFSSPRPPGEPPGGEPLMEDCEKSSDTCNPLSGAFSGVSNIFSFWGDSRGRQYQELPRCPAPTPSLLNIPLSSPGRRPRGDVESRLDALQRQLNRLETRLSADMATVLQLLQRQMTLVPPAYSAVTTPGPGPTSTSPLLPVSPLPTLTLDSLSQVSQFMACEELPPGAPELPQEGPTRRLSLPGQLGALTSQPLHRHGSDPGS

Structure (SMILES) | hERG current change (%, negative = inhibition) at 10uM [%]
Cc1cc(C)cc(OCC(=O)OCC(=O)N(C)CC(=O)Nc2ccc(F)cc2)c1 | -4.65
Cc1cccc(C)c1OCC(O)CN1CCc2ccccc2C1.Cl (stereo not shown) | -64.2
O=C(Cn1ncc2c(=O)oc3ccccc3c21)NCC1CCCO1 (stereo not shown) | 9.96
O=C(CSc1n[nH]c(=O)[nH]c1=O)Nc1ccc2c(c1)C(=O)c1ccccc1C2=O | 0.284
COC(=O)C1=C(C(=O)OC)[C@@H]2N(C)c3ccccc3[C@@]23C[C@@H](C(=O)OC)N(C(=O)c2cc(C)oc2C)C3=N1 | -10
CN(C)c1ccc(NS(=O)(=O)c2cc3c4c(c2)CC(=O)N4CCC3)cc1 | 5.66
COc1ccc(S(=O)(=O)NCCc2csc(C)n2)cc1C | 12.4
O=C(Nc1cccc(NC(=O)c2c(F)cccc2F)n1)c1c(F)cccc1F | 29.2
COC(=O)COc1ccc(-c2nn(C)c(=O)c3ccccc23)cc1 | 2.26
CCCCCCSc1ccc([C@H]2N[C@@](C)(C(=O)OC)[C@H]3C(=O)N(C)C(=O)[C@@H]23)cc1.O=C(O)C(F)(F)F | -12.2
CC(C)n1c(Oc2ccc(F)cc2)nc2c1c(=O)n(C)c(=O)n2C | -9.1
O=C1C(=O)N(CCN2CCOCC2)C(c2ccccc2F)/C1=C(\O)c1ccc(S(=O)(=O)N2CCOCC2)cc1 (stereo not shown) | 11.5
O=C(NNC(=O)c1ccco1)c1ccccc1 | -0.866
O=C(Nc1cccnc1)C1CC(=O)N(c2ccc(F)cc2)C1 (stereo not shown) | 22.9
Cc1coc2cc3oc(=O)cc(C)c3cc12 | 8.61
COc1ccc(-c2cc(=O)oc3cc(OC(C)C(=O)NC4CC4)ccc23)cc1 (stereo not shown) | 3.64
Cc1cccc(OCc2nnc(SCC(=O)Nc3cccc(C(=O)N4CCOCC4)c3)o2)c1C | -2.16
O=C(COC(=O)COc1ccccc1)Nc1cccc([N+](=O)[O-])c1 | 9.51
O=C(Cn1nnc(-c2ccncc2)n1)N1CCc2ccccc21 | 15.2
OC(CCN1CCCCC1)c1ccc(-c2ccccc2)cc1 (stereo not shown) | -56.4
CSc1ccccc1NC(=O)c1ccc([N+](=O)[O-])cc1 | -38.6
CN(C)S(=O)(=O)c1cccc(C(=O)OCC(=O)c2c(N)n(C)c(=O)n(C)c2=O)c1 | -11.3

Structure (SMILES) | hERG current change (%, negative = inhibition) at 10uM [%]
COc1ccc(N(CC(=O)NCc2ccc(F)cc2)S(=O)(=O)c2c(C)noc2C)cc1 | -17.9
Cc1cccc(-n2ncc(C#N)c2N)c1 | 17.4
CC(=O)c1cc2c(cc1N(C(=O)c1ccco1)C(C(=O)NC1CCCC1)c1ccccc1F)OCO2 (stereo not shown) | 4.2
Cc1cc(C(=O)NNC(=O)CN2C(=O)NC3(CCCCC3)C2=O)c(C)o1 | 8.88
CCN(CC)C(=O)CSc1nnc2sc3ccccc3n12 | 14.8
O=C(NC(=S)Nc1nc(-c2cccc([N+](=O)[O-])c2)cs1)c1ccccc1Cl | 13.5
CCOc1ccc2cc(C3CC(c4ccco4)=NN3S(=O)(=O)c3ccccc3)c(Cl)nc2c1 (stereo not shown) | 3.09
O=S(=O)(c1ccc(Br)cc1)N1CCC2(CC1)OCCO2 | -4.39
CCCOc1ccc(C(=O)Nc2ccccc2[N+](=O)[O-])cc1 | 5.49
O=C(CNS(=O)(=O)c1ccc(Br)s1)NCc1ccc(F)cc1 | -6.05
Cn1ncc(Cl)c1C(=O)Nc1ccc(Cl)cn1 | -0.844
COc1cc(-c2nn3c(-c4ccccc4)nnc3s2)cc(OC)c1OC | -0.504
CCOc1ccc(/C=C/[N+](=O)[O-])c2ccccc12 | -8.67
CC(C)(C)c1nc2ccccc2[nH]1 | 7.06
COc1ccc(C2C3=C(CCCC3=O)Nc3nc(SCc4ccccc4)nn32)cc1OC (stereo not shown) | -17.9
O=C1c2oc3ccccc3c(=O)c2C(c2cccs2)N1CCCN1CCOCC1 (stereo not shown) | 3.06
CCn1c(C)c(C)c2cc(C(=O)NCCCN3CCCC3)ccc21 | 2.38
Cc1cc(=O)oc(C)c1C(=O)NC1CCCCCCC1 | 1.65
CCc1ccc(NC(=O)C2=CC(c3cccs3)=NS(=O)(=O)N2C)cc1 | -8.4
Cn1cc(Br)c(C(=O)Nc2sc3c(c2C#N)CCC3)n1 | 15.2
O=C(COC(=O)CCCN=C1NS(=O)(=O)c2ccccc21)NNC(=O)c1ccccc1 | 14.2
CCS(=O)(=O)N1Cc2ccccc2CC1C(=O)Nc1cccc(C)c1 (stereo not shown) | -4.95

Structure (SMILES) | hERG current change (%, negative = inhibition) at 10uM [%]
CCOC(=O)/C(=C\c1ccc(Cl)cc1)c1nc2sc(C)c(C)c2c(=O)[nH]1 | 9.78
O=C(NC1CC2CCCC(C1)N2Cc1ccco1)NC12CC3CC(CC(C3)C1)C2 (stereo not shown) | -46.8
O=C(Oc1ccc(Br)cc1C(=S)N1CCOCC1)c1cccc([N+](=O)[O-])c1 | 17.4
O=C(Nc1ccc(N2CCOCC2)cc1N1CCOCC1)c1ccc([N+](=O)[O-])cc1 | 2.51
Cc1noc(C)c1C(=O)Nc1c(F)cc(F)cc1Br | 3.24
CCNC(=S)N1CCN(Cc2ccccc2)CC1.O=C(O)C(=O)O | -59.9
COc1ccc(-n2c(SCC(=O)Nc3ccc(NC(C)=O)cc3)nc3c([nH]c4ccccc43)c2=O)cc1OC | 14.5
O=C(NN1C(=O)c2ccccc2C1=O)c1ccncc1 | 10.4
COc1ccc(S(=O)(=O)N(Cc2ccco2)Cc2cc3ccccc3[nH]c2=O)cc1 | 16.6
Cc1ccc(S(=O)(=O)N2CCCOC2CNC(=O)C(=O)NCc2ccccc2C)cc1 (stereo not shown) | 12.6
Cc1cc(N2CCCCC2)ccc1[N+](=O)[O-] | -24.3
Cc1ccc(-c2cc(C(=O)N3CCN(c4ncccn4)CC3)c3cc(Br)ccc3n2)o1 | 2.67
Cc1nnc(N2CCN(c3ccccc3)CC2)[nH]c1=O | -0.0754
Cc1ccc(S(=O)(=O)N/N=C2/CC(c3ccccc3)Oc3ccccc32)cc1[N+](=O)[O-] (stereo not shown) | 6.02
CNC(=O)c1[nH]cnc1C(=O)N[C@@H](C)C(=O)OC(C)(C)C | 19
COCCCNc1nc2nonc2nc1N1CCN(C2CCCC2)CC1 | -20.2
COc1ccc([N+](=O)[O-])cc1NC(=O)C1(c2ccccc2)CCOCC1 | -17.4
COc1ccc(S(=O)(=O)N2CCN(C(=O)N(C)C)C2C)cc1 (stereo not shown) | 18.1
COc1ccc(C(=O)N(CN2CCCC2=O)c2ccc(C)cc2)cc1 | 0.0531
COc1ccc(NC(=O)CN(C)C(=O)C(C)Sc2ccccc2)cc1 (stereo not shown) | 5.43
CCNc1nc(Oc2ccc(C(=O)OCC)cc2)nc(N2CCOCC2)n1 | -6.59
CCOC(=O)c1ccc(N2C(=O)CC(N3CCC(C(=O)OCC)CC3)C2=O)cc1 (stereo not shown) | -8.81

Structure (SMILES) | hERG current change (%, negative = inhibition) at 10uM [%]
CC(=O)Nc1c(O)nc(SCC(=O)Nc2nnc(SCc3ccccc3)s2)[nH]c1=O | 23
C/C(=N\NC(=O)CCCC(=O)O)c1c(-c2ccccc2)c2cc(Cl)ccc2[nH]c1=O | 19.9
CC(C(=O)Nc1ccc(S(=O)(=O)N2CCCC2)cc1)N1CCc2ccccc2C1 (stereo not shown) | -0.0671
CC(C)Oc1ccc(CCC(=O)N/N=C/c2ccncc2)cc1 | 0.414
COC(=O)c1ccc(/C=N\NC(=O)c2ccc(C)cc2Cl)cc1 | 11.6
O=C(Cc1ccc(-n2c(=O)c3ccccc3n(Cc3ccc(F)cc3)c2=O)cc1)NCC1CCCO1 (stereo not shown) | -19.6
COC(=O)C1=C(C)N(CCCC(=O)O)C(=O)NC1c1cccs1 (stereo not shown) | 13.1
O=C(COC(=O)c1ccccc1NS(=O)(=O)c1cccs1)NCC12CC3CC(CC(C3)C1)C2 | 5.15
CCN(C(=O)CN1CCc2ccccc21)c1c(N)n(Cc2ccccc2)c(=O)[nH]c1=O | 44.1
CC(C)(C)S(=O)(=O)c1ccsc1C(=O)O | 12.5
CCOC(=O)c1c(C)nc2sc3c(=O)n(-c4ccc(C(C)=O)cc4)cnc3c2c1-c1ccc(Cl)cc1 | 10.8
COc1ccc2nc3ccccc3nc2c1 | -0.194
COc1ccc(/C=N/NC(=O)C(=O)N2CCCC2)cc1 | 11.2
O=C(CCC(=O)c1ccccc1)Nc1ccc(C(=O)O)cc1 | 13.8
COC(=O)c1cc(N2CCN(C)CC2)nc2ccccc12.Cl | -21.9
CCOC(=O)N/N=C/c1cn(Cc2ccc(Cl)cc2)c2ccccc12 | 14.1
C/C(=N/NC(=O)c1ccc(C)nc1)c1ccc2c(c1)CCCC2 | -19.1
COc1ccc(C2CC(=O)C(C=NCCN3CCOCC3)=C(O)C2)cc1 (stereo not shown) | 6.95
COC(=O)Cc1c(C)[nH]n(-c2cc(Cl)cc(Cl)c2)c1=O | 15.9
